Assay results as given in the supplement of paper PMC10338343.
± gives the standard deviation. Only a part is listed here, and it is no random draw.

test system: MIWI (PIWIL1) piRISC loaded with L1MC piRNA (30 nt); assay: pre-steady-state target cleavage rate (min^-1); MIWI and MILI are mouse PIWI proteins and EfPiwi is from a freshwater sponge; tags in brackets are library labels; higher = faster piRNA-guided slicing of the target; conditions: guide: L1MC piRNA 5'p-UAACUAAAUACUAUGCAAGCUGUAGGUCCU; auxiliary factor: 500 nM mouse GTSF1
Method in brief: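 Using HEPES–potassium acetate buffer at 33 °C, 1 nM active affinity-purified piRISC with a single synthetic guide was mixed with 0.1 nM transcribed, DNA-blocked target RNA library for 0–8 or 0–960 min, with or without 500 nM GTSF1 partner protein. Uncleaved targets were sequenced and normalised to depth and to weakly complementary targets, and three trials were pooled with k3 capped at 0.0001 min^-1. A burst-and-steady-state fit gave the pre-steady-state cleavage rate.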

| Sequence | pre-steady-state target cleavage rate |
| --- | --- |
| AGGACCUACAGCUUGCAUAAGUAUUUAGUUA | 0.338 ± 0.12 |
| UCCUGCUACUCCUUGCAUAGUAUUUUCAAA | 0.115 ± 0.026 |
| UGGACCUACAGCUUGCAUAGUUUUUUCAAA | 0.0837 ± 0.02 |
| UCCUGGAUGUCGAACCAAUCUAUUUAGUUA | < 0.0001 |
| UCCUCCUACAGCUUGGUUAGUAUUUAGAAA | 0.172 ± 0.029 |
| UCCUGGUACAGCUUGCAUUGUAUUUAGAAA | 0.0478 ± 0.013 |
| UCCUGGAUGUCGAACAAUAGUAUUUAGUUA | < 0.0001 |
| UCCUGGAACAGCUUGCAUUCUAUUUAGAAA | 0.00675 ± 0.0056 |
| UCCUGGUACAGCAAGCAUAGUAUUUUCAAA | 0.0796 ± 0.022 |
| UCGACCUACAGCUUCGUUAGUAUUUAGUAA | 0.0294 ± 0.006 |
| UCCACCUACAGCUUGCAUAGUUAAUAGAAA | 0.0675 ± 0.022 |
| UCCUCCUACAGCUUGCAUAGUUUUUUCAAA | 0.127 ± 0.028 |
| UCCUGGAUCAGCUUGCAUACUAUUUACAAA | 0.0374 ± 0.012 |
| UCCUGGUACACGAUGCAUAGUAUUUAGUAA | 0.0477 ± 0.015 |
| UCCUCCUACAGCUUGCAUAGUAAUAAGUUA | 0.227 ± 0.029 |
